About 1,700 (3.3%) of roughly 52,000 compounds were called active. Cut-off read from the data, not from the text of the source: active = survival mostly below about 52% (no sharp cut-off); inactive = mostly above about 56%. This is one part of the list.
What follows are molecules tested on Wild type (assay: S. aureus survival, RN4220 and DeltatarO strains – OD600, teichoic acid synthesis inhibitors, primary screen (AID 463173)). Conditions: S. aureus RN4220 wild type/DeltatarO growth, OD600, 18 h, stronger effect = lower value, screened at 18.75 µg/mL (by protocol).

Row | Structure (SMILES) | survival
1 | CC1CCN(S(=O)(=O)c2ccc3c(c2)c(=O)c(C(=O)NCc2ccc(Cl)cc2)cn3C)CC1 | inactive: 84%
2 | COc1ccccc1NC(=O)Cn1cnc2c(nc3n2CCCCC3)c1=O | inactive: 72%
3 | CCCCc1c(C(=O)O)cccc1C(=O)O | inactive: 126%
4 | CCC1CCC(C(=O)NC(C(=O)NCCN(CC(C)C)CC(C)C)C(C)C)CC1 (centres undefined) | inactive: 70%
5 | CCOc1ccc(Nc2c(S(=O)(=O)c3ccc(Cl)cc3)cnc3ccc(OC)cc23)cc1 | inactive: 88%
6 | COCCN(Cc1cc2ccc(C)c(C)c2nc1Cl)C(=O)N1CCOCC1 | inactive: 104%
7 | O=C(Nc1ccc(F)cc1)N1CCN(c2ccc3nnc(-c4ccc(F)cc4)n3n2)CC1 | inactive: 81%
8 | Cc1ccc(-n2nnc(-c3nsc(NC(=O)c4ccccc4C)n3)c2C)cc1Cl | inactive: 159%
9 | Cc1ccc(CNC(=O)C2CCN(C(=O)c3ccc(-n4ccc5ccccc54)s3)CC2)cc1 | inactive: 56%
10 | COc1ccc(-c2cn3c(n2)sc2cc(C(=O)NCc4cccs4)ccc23)cc1 | inactive: 70%
11 | COc1ccc(-c2c3c(=O)n(C)c(=O)n(C)c3cn2-c2cccc(N)c2)cc1 | inactive: 83%
12 | CCOC(=O)CC(NC(=O)CCc1c(C)nc2c(-c3ccccc3)c(C)nn2c1C)c1ccc(C)cc1 (centres undefined) | inactive: 98%
13 | COc1cccc(CN2C(=O)N(c3ccc(C)cc3)C(=O)C2CC(=O)Nc2cc(OC)cc(OC)c2)c1 (centres undefined) | inactive: 148%
14 | COc1ccc(Cn2ccc3nc(C)c(C(=O)Nc4ccc(F)cc4)cc3c2=O)cc1 | active: -3%
15 | COCCCNC(=O)c1[nH]c2cc(OC)ccc2c1Sc1ccc(C)cc1 | inactive: 122%
16 | CCn1cc(C(=O)NCCc2ccc(Cl)cc2)c(=O)c2cc(S(=O)(=O)N3CCc4ccccc4C3)ccc21 | inactive: 75%
17 | COCCn1c(=S)[nH]c2ccccc2c1=O | inactive: 105%
18 | Cc1cccc(NC(=O)CSc2nc3ccc(NC(=O)COc4ccc(Cl)cc4)cc3s2)c1 | inactive: 85%
19 | Cc1c(NC(=O)Cc2ccc(F)cc2)cccc1-c1nc2cccnc2s1 | inactive: 89%
20 | O=C(Nc1nnc(SCc2cc(=O)c3ccccc3[nH]2)s1)c1ccccc1 | inactive: 85%
21 | Cc1cccc(NC(=O)c2cc3c(=O)n(Cc4ccco4)ccc3nc2C)c1 | inactive: 68%
22 | Cc1nn(-c2ccccc2)c2c1N(CC(=O)NCc1ccc(N(C)C)cc1)C(=O)CS2 | inactive: 73%
23 | Fc1ccc(-c2nc(-c3cccs3)c(-c3cccs3)[nH]2)cc1 | inactive: 79%
24 | Cc1ccc2cc3cc(C(=O)N4CCN(c5cccc(C(F)(F)F)c5)CC4)sc3nc2c1 | inactive: 89%

Source: PubChem BioAssay AID463173 (ICCB-Longwood Screening Facility, Harvard Medical School, 2010)
